Results published in the supplement of paper PMC3334620.
Whole data set: some 33,000 sequences, median “E-score (-0.5 to 0.5)” near -0.012, cut for the highest 2% near 0.27. Some of the results follow.

biological target: T1, Vhr1 (UniProt P40522); experiment: PBM E-score (8-mer binding enrichment) (E-score (-0.5 to 0.5)); higher = stronger / more preferred TF binding; most listed sequences are background and not binding sites; settings: protein concentration: 200 nM; construct: GST-full length
T1 sequence: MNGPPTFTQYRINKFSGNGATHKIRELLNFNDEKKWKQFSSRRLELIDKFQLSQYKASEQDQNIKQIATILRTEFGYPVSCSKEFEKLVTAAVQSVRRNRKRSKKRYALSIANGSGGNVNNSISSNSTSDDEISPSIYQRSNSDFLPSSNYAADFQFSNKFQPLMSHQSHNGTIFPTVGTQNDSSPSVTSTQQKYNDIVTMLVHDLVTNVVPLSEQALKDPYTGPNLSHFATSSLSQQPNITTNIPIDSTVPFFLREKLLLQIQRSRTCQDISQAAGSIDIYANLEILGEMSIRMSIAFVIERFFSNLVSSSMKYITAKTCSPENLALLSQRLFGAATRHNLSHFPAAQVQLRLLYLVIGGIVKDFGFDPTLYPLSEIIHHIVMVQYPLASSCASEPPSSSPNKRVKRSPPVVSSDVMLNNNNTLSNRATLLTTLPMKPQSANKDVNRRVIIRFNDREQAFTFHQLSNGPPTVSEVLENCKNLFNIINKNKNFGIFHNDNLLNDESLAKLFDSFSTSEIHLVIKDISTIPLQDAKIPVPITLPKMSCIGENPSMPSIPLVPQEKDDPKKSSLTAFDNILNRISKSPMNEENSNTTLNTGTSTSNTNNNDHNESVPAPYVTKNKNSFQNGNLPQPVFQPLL
Outline: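 Bound GST-tagged yeast transcription factors, applied at about 100-200 nM to double-stranded universal all-10-mer Agilent arrays, were detected with fluorescent anti-GST. Scans were normalised with masliner. A modified Wilcoxon-Mann-Whitney statistic, the E-score, was assigned to each ungapped eight-base word pooled with its reverse complement by the Universal PBM Analysis Suite.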

Sequence | PBM E-score
AAGATAGC | -0.19
AAGCTTTG | -0.181
ATGTGAGC | 0.103
TCAGGTCA | -0.00531
ACTCGTGA | 0.159
CGTCCCGC | 0.00796
AACGTTCG | -0.0484
AGTAGCTC | -0.0175
ATATGCCG | 0.0437
TAGTTTCA | 0.092
GTAAATAA | -0.125
GACAGTCA | 0.158
AGGACATA | -0.133
GACATAAA | 0.0904
GTCCTGTA | -0.0863
GTATCCTA | -0.105
CACAGACG | 0.104
TACATGAA | 0.0664
CACCTCGG | 0.0719
ACTGGACT | -0.0357
GGAACTCC | 0.0126
GTACCCGA | -0.161
ACACTGCT | -0.0775
CTCTCCGA | -0.125
GATACACA | 0.099

Sequence | PBM E-score
CATTTTGG | -0.164
CTAAATCA | 0.0382
AGAAATAG | -0.28
ACTTCTAA | -0.211
GCCCGTCC | -0.0732
TACTTGCA | -0.00561
ACGGTACG | 0.0831
CCTACATA | -0.0648
GGGTCTGA | 0.0313
AGTCGAAA | -0.089
AGGTTCTG | -0.137
GTGGCATA | -0.0412
TGCCAGAA | -0.0526
GAGAAGAA | -0.138
ACTGAGAG | 0.129
AGCGATTG | -0.252
CGCGTCAG | -0.12
GAGAGGAA | -0.0571
ATACTCAT | 0.277
ACCAGAAC | 0.262
AGAAAGGA | -0.0926
ATTTAACA | 0.00701
AATCAAAT | -0.0562
AGGCAGGC | -0.159
ATGGACAA | -0.131

Sequence | PBM E-score
AGGGTATG | 0.138
CCAATTCC | -0.0792
ATTATCGC | 0.0303
CGGAAAAA | -0.246
AACTGTGG | 0.185
AAGGCATC | -0.371
CTAAAGCA | -0.0185
ATGTATCG | 0.146
ATCAGGTG | 0.197
GTGTAAAC | 0.0594
CTAGAGTC | 0.116
AGAGACTC | 0.222
CGAGTGCG | 0.0386
AGCCAACC | 0.11
AAGACGAC | 0.0366
TGAGATCA | 0.00763
CTTCTTCC | -0.155
ACCGGGGA | -0.161
ACACTGCA | 0.0651
ACGTTTGG | -0.0898
AAAGGATT | -0.0921
CAACCACA | 0.155
CTGACAAA | -0.0657
AAAAGGCA | -0.0348
AAAGTGCT | -0.076

Sequence | PBM E-score
AGCACCGA | 0.123
ATACTGGA | 0.121
AACGTACT | 0.196
TCCAATAA | -0.109
AAGGCAAT | -0.12
ATAGCCTG | 0.0591
AAGCCCAG | -0.0873
GGTGTTGA | -0.0191
CGCCCCGC | 0.0373
ACATAGAC | 0.0646
ACACATCC | 0.249
GACTGCAA | 0.132
ACCTGGGC | -0.255
GGTTGAAC | 0.0417
CATTAACG | 0.0431
AAGAATCA | 0.222
GCGTGTCC | 0.209
ACACATGT | 0.244
CATTCAGA | 0.0364
ATCCGCTA | -0.0247
ATTTCTAC | -0.212
ACTACTTG | 0.22
GCACGTGA | -0.0842
AACTTAAC | -0.0643
GAAGCACA | -0.00604

Sequence | PBM E-score
CAATCCCG | 0.264
ATACCGTG | 0.166
CCCCGGGG | -0.126
GCACTCAA | -0.155
ACCCCGGA | -0.114
TGTACACA | 0.0228
ATTAAGAC | -0.155
CCTGATTC | 0.367
ATATCACG | 0.00112
CGCATAAA | -0.159
CGGGGTGA | 0.275
AGCGAGGC | -0.196
AAGCGTAC | -0.125
ATAGGATG | 0.2
AATCTATA | -0.00156
GCGAGTTA | 0.0636
CAGCTTCG | -0.0461
GACTTCGA | -0.122
CGCAACCG | -0.0379
GATTTAGA | -0.118
CACGTACA | 0.108
AGTCCGCC | 0.243
ATAGTAAG | 0.0984
AAAACCTC | -0.0788
CGCCCTGC | 0.123

Sequence | PBM E-score
GAGGGAGA | -0.0874
ATTAAGCA | -0.118
CAGTGCTC | -0.00995
TCGGTGAA | -0.0445
AAGCTTAC | -0.142
TAACATGA | 0.102
AGCCTACG | 0.0434
CATTGGAC | 0.0432
CGTAAATC | -0.183
CGAGGTTA | 0.0411
CCTTTTTA | -0.205
TGAGGCCA | -0.00975
ACTGTGCA | 0.111
AAGAGAAG | -0.204
AGCGTTGC | -0.116
AGTCAGAG | 0.386
TAATCGCA | 0.138
CAACGGCG | -0.125
AGTGTTGC | -0.027
GGAGTCCA | 0.163
TAATTAAA | -0.00776
ATCATTGG | 0.204
CATCCCTC | 0.0935
TAAATGCA | 0.064
CAAGTGAA | -0.108

Sequence | PBM E-score
TGAACGAA | -0.192
ATACACCC | 0.11
ACTCACCC | 0.391
ACTCCGCC | 0.183
TAGAACGA | 0.0366
AATATGTA | 0.00191
AGGTTCGC | -0.102
ACGACAGG | 0.13
GCTCAGGA | 0.13
AAAGTGTT | -0.194
ACGAAGTA | -0.0865
CGTTTTAG | -0.253
GGACCACA | 0.0696
AGGTTCCA | -0.201
AATGCGGT | 0.0174
CCTCCAGA | -0.0252
AGGCAGAT | 0.0683
ACTCGGGG | 0.0931
GGACTGTA | -0.0126
ACATCGCT | 0.0502
CGGCAAAC | 0.0854
CACCCTGG | 0.0592
ACAGCCAC | 0.145
CCTCATGC | 0.0272
AGGGCACT | -0.238

Sequence | PBM E-score
ATCTCTTG | -0.21
CTCCCATA | -0.0411
GCTACGCC | -0.145
GAGGGAAA | -0.34
ATTGCAGA | -0.0411
CCGTAACC | -0.0991
AGAGGAGC | -0.0596
AACAGTTA | -0.0466
CCGCGAAC | 0.151
ACGCGCCG | 0.00905
AATCCATG | 0.133
AAATTCAT | -0.0302
ATCGTCCG | 0.0471
ACTTCATG | -0.00105
CACCCGTA | -0.00722
ATACCCCC | -0.119
CGGGAAAC | -0.0916
AGGCTCAG | 0.116
CCTAGGTA | -0.106
GGCGGAAA | -0.092
CCCAGACG | -0.152
ACTCTGAG | 0.0558
CGGTCGTC | -0.0873
ACCATGGT | 0.259
CCCCTTTA | -0.246

Sequence | PBM E-score
CCCCCACC | -0.341
ATACTCTC | -0.0158
CACGGGAA | -0.155
GAGAACCA | -0.0117
GCTTCGAC | -0.144
ACGTAGGG | -0.366
ATAGGCTG | -0.0935
AGTCAGGG | 0.356
AGCCTTGC | -0.018
ACTATGTC | 0.091
CCAAATGG | -0.109
CGGTTCGC | -0.00783
AAGGCGTA | -0.115
CGAGCAGC | 0.166
GAGGATCA | -0.0399
GTGGTTGA | -0.104
AGATGGAA | -0.136
AATTTAGT | 0.256
TGCGGCCA | -0.0472
